{
  "source": "PubChem BioAssay AID1671193",
  "about": "(National Center for Advancing Translational Sciences (NCATS), 2021)",
  "note": "In all, about 150,000 compounds went through this assay and about 180 (0.12%) were called active. Inconclusive means that the source gave no clear call. Such entries were picked first, then a sample of the others. Calls come from the whole dose curve; as a rule, active = well fitted cell-killing curve with a large enough effect; inconclusive = small, poorly fitted or top-dose-only effect, or effect the other way; inactive = flat fitted curve, though single readings scatter. Potencies beside an inconclusive call are fits to weak or partial responses and may not hold up. Potency is the fitted concentration of half-maximal effect; tags give direction and shape of the fitted curve.",
  "data": [
    {"assay": "GF-AFC viability counterscreen for inhibitors of alpha-synuclein gene (SNCA) expression; note: nearly all actives have a fitted effect of over 30% in size;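 for activity change, negative = cytotoxicity: 0% = DMSO-treated cells and -100% = medium-only wells without cells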", "conditions": "HEK-293-SNCA-luc viability, GF-AFC fluorescence, 24 h; activity change, negative = cytotoxicity: at 57.1 µM (top of the series) unless noted", "method_in_brief": "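Cytotoxicity counterscreen: after 24 h compound treatment of genome-edited SNCA-luciferase HEK-293 cells, live-cell protease substrate GF-AFC read by fluorescence after 30 min; activity scaled between DMSO (0%) and medium-only (-100%), curves Hill-fitted.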", "values": [
      {"smiles": "COc1ccc2[nH]cc(CN3CCC4(CC3)CC(C(=O)N3CCOCC3)N(C)C4)c2c1", "note": "(stereo unspecified)", "activity change, negative = cytotoxicity": "inactive: 2.51%"},
      {"smiles": "CN1c2cc(C(=O)Nc3cccc(OC(F)(F)F)c3)ccc2C(=O)N2CCCCC21", "note": "(stereo unspecified)", "activity change, negative = cytotoxicity": "inactive: 5.2% [at 12.5 µM]"},
      {"smiles": "COc1ccc(-n2c(=O)c(C(=O)Nc3ccccc3Cl)nc3cccnc32)cc1", "activity change, negative = cytotoxicity": "inactive: 12.9%"},
      {"smiles": "Cc1ccc(C)c(OCCn2c(C3CC(=O)N(Cc4ccc(F)cc4)C3)nc3ccccc32)c1", "note": "(stereo unspecified)", "Potency": "inconclusive: 39.8 µM [cytotoxic, single point]"},
      {"smiles": "CN1c2cc(C(=O)Nc3ccc4c(c3)OCCO4)ccc2C(=O)N2CCCC21", "note": "(stereo unspecified)", "activity change, negative = cytotoxicity": "inactive: -18.6% [at 12.5 µM]"},
      {"smiles": "O=C(Cc1c[nH]c2ncc(-c3ccc(Oc4ccccc4)cc3)cc12)N1CCOCC1", "Potency": "inconclusive: 31.6 µM [cytotoxic, single point]"},
      {"smiles": "C/C=C(\\C)C(=O)O[C@H]1C=C(CO)C(=O)[C@H](OC(C)=O)[C@H]1C(C)C", "Potency": "inconclusive: 20.7 µM [cytotoxic, single point]"},
      {"smiles": "Cc1cc(C)c(NC(=O)CSc2nc3ccccc3c3nc(CCn4cncc4C)nn23)c(C)c1", "Potency": "inconclusive: 1.78 µM [cytotoxic, full curve]"},
      {"smiles": "COCCNC(=O)c1cc(C2CC2)nc2onc(C3CCCN3)c12", "note": "(stereo unspecified)", "activity change, negative = cytotoxicity": "inactive: -3.04%"},
      {"smiles": "COc1cc(OC)cc(C(=O)Nc2cc(-c3nc4ccccc4[nH]3)ccc2C)c1", "Potency": "inconclusive: 31.6 µM [cytotoxic, single point]"},
      {"smiles": "Cc1cccc(OCC(=O)N2CCCN(c3cc(-c4ccc(Cl)cc4)[nH]n3)CC2)c1", "Potency": "inconclusive: 39.8 µM [cytotoxic, single point]"},
      {"smiles": "CCc1ccc(NC(=O)COC(=O)CCCC2=NS(=O)(=O)c3ccccc3N2)cc1", "Potency": "inconclusive: 6.31 µM [rising, partial curve]"},
      {"smiles": "CC1=C[C@@H](CN2CCOCC2)[C@H](C(C)C)C[C@H]1Cc1nnc(-c2ccccc2F)o1", "Potency": "inconclusive: 39.8 µM [cytotoxic, single point]"},
      {"smiles": "CN1CCN(C(=O)c2cn3cc(-c4ccccc4)sc3n2)CC1", "Potency": "inconclusive: 14.1 µM [cytotoxic, partial curve, poor fit]"},
      {"smiles": "C[C@@]12CO[C@@H](COc3ccccc3)O[C@@H]1CC[C@]1(C)C2CC[C@@H](O)[C@H]1CC(=O)NCc1cc(F)cc(F)c1", "note": "(stereo partly specified)", "activity change, negative = cytotoxicity": "inactive: -17.4%"},
      {"smiles": "Cc1noc(C)c1Cc1c(C(=O)NCCn2c(C)cnc2C2CC2)noc1C", "Potency": "inconclusive: 7.08 µM [cytotoxic, single point]"},
      {"smiles": "O=C(NCc1ccccc1Cl)C1CCN(c2nccc(Nc3ccccc3F)n2)CC1", "activity change, negative = cytotoxicity": "inactive: 5.59% [at 12.5 µM]"},
      {"smiles": "Cc1ccc(CNC(=O)C(C)n2nc(C)c3sc4ccccc4c3c2=O)cc1", "note": "(stereo unspecified)", "activity change, negative = cytotoxicity": "inconclusive: 24.9%"},
      {"smiles": "Cc1ccc2c(c1)-c1c(c(C(=O)N3CCN(c4cc(C)ccc4C)CC3)nn1C)CS2", "Potency": "inconclusive: 39.8 µM [cytotoxic, single point]"},
      {"smiles": "Cc1noc(C)c1CC(=O)N1CCCC2(C1)Nc1cccnc1NC2=NC1CCCC1", "note": "(stereo unspecified)", "activity change, negative = cytotoxicity": "inactive: 0.657%"},
      {"smiles": "CCc1noc(-c2cccn3c(CNC(=O)c4ccccc4C)nnc23)n1", "activity change, negative = cytotoxicity": "inactive: -8.38%"},
      {"smiles": "CN(C)c1ccc(C(=O)N2CCN(c3cc(-c4ccc(Cl)cc4)[nH]n3)CC2)cc1", "activity change, negative = cytotoxicity": "inactive: -8.08%"},
      {"smiles": "CC1(C)[C@H](Cc2cc(COc3ccccc3)on2)C[C@@H]1NC(=O)c1cccs1", "Potency": "inconclusive: 20 µM [cytotoxic, partial curve, poor fit]"},
      {"smiles": "CN(C(=O)c1cc(C2CC2)[nH]n1)C1CCc2nn(CC3CC3)c(=O)n2CC1", "note": "(stereo unspecified)", "Potency": "inconclusive: 14.1 µM [rising, partial curve, poor fit]"},
      {"smiles": "CN(Cc1csc(-c2ccccc2)n1)c1cc(C2CC(O)C2)nc(N)n1", "note": "(stereo unspecified)", "Potency": "inconclusive: 11.2 µM [cytotoxic, partial curve, poor fit]"},
      {"smiles": "O=C(NC1CCCCC1)C1CCCCN1Cc1ccc(-c2ccsc2)cc1", "note": "(stereo unspecified)", "Potency": "inconclusive: 6.31 µM [rising, single point]"},
      {"smiles": "CN1CCN(Cc2c(O)ccc3cc(-c4ccc(Cl)cc4)c(=O)oc23)CC1", "Potency": "inconclusive: 12.6 µM [rising, partial curve]"},
      {"smiles": "COCc1nn(CC(=O)N2CCc3sccc3C2)c(=O)n1-c1ccccc1", "activity change, negative = cytotoxicity": "inactive: 4.53%"},
      {"smiles": "CCN(CC)c1ccc(NC(=O)CCn2ccn3nc4c(c3c2=O)CCCC4)c(C)c1", "Potency": "inconclusive: 7.08 µM [cytotoxic, full curve, poor fit]"},
      {"smiles": "COC(=O)c1sc2c(c1C)c(=O)n(-c1ccccc1)c(=O)n2CC(=O)Nc1cccc(C)c1", "Potency": "inconclusive: 1.26 µM [cytotoxic, full curve, poor fit]"},
      {"smiles": "O=C(NCc1cccs1)c1ccc(CSc2nc3ccncc3n2Cc2cccc(F)c2)cc1", "Potency": "inconclusive: 15.8 µM [cytotoxic, partial curve, poor fit]"},
      {"smiles": "CC1Cc2cc(S(=O)(=O)NCc3ccc(F)cc3)ccc2N1C(=O)C1CCC1", "note": "(stereo unspecified)", "Potency": "inconclusive: 7.08 µM [rising, single point]"},
      {"smiles": "CCN(C(=O)CN1C(=O)NC2(CCC(C)CC2)C1=O)c1ccccc1", "note": "(stereo unspecified)", "activity change, negative = cytotoxicity": "inactive: 1.49%"},
      {"smiles": "COc1ccc(NC(=O)c2cccc3c2CCN3C(=O)c2ccc(F)cc2)cc1OC", "activity change, negative = cytotoxicity": "inactive: -3.3%"},
      {"smiles": "C=Cc1ccc(Cn2c(=O)n(-c3ccccc3C)c(=O)c3c4c(sc32)CN(C(C)=O)CC4)cc1", "Potency": "inconclusive: 25.1 µM [cytotoxic, single point]"},
      {"smiles": "Clc1cccc(-c2noc3ncnc(NC4CCCCC4)c23)c1", "Potency": "inconclusive: 1.78 µM [rising, single point]"},
      {"smiles": "O=C(O)c1cc(N(Cc2ccc(C3CCCCC3)cc2)C(=O)c2ccc(Oc3ccccc3)cc2)ccc1O", "activity change, negative = cytotoxicity": "inactive: -13.8%"},
      {"smiles": "COc1ccc(CSc2nc3ccncc3n2Cc2nc(-c3ccc(OC)c(OC)c3)oc2C)cc1", "Potency": "inconclusive: 39.8 µM [cytotoxic, single point]"},
      {"smiles": "COc1ccc(-c2c(C)c3ccc(O)c(CN4CCN(C)CC4)c3oc2=O)cc1OC", "Potency": "inconclusive: 22.4 µM [rising, single point]"},
      {"smiles": "CCc1n[nH]c(CC2CCN(C(=O)Nc3ccc4c(c3)OCCO4)CC2)n1", "activity change, negative = cytotoxicity": "inactive: 2.32%"},
      {"smiles": "O=C1CCN(C(=O)C2CCCC2)CCCC(C(=O)N2CCN(c3ccccn3)CC2)CCN1", "note": "(stereo unspecified)", "activity change, negative = cytotoxicity": "inactive: 9.05%"}
    ]}
  ]
}
